The source of these data is the supplement of paper PMC3334620.

In all, about 33,000 sequences were measured (“E-score (-0.5 to 0.5)”: median about -0.01, highest 2% from about 0.26 on). This is one part of the list.

This experiment has as its target Ste12 (UniProt P13574). The experiment in a line: PBM E-score (8-mer binding enrichment) (E-score (-0.5 to 0.5)); higher = stronger / more preferred TF binding; most listed sequences are background and not binding sites. As to conditions: protein concentration: 200 nM; construct: GST-DNA-binding domain. In a few lines: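 E-scores (a modified Wilcoxon-Mann-Whitney statistic) were assigned by the Universal PBM Analysis Suite to every ungapped eight-base word pooled with its reverse complement. The input came from universal all-10-mer Agilent arrays made double-stranded by primer extension and probed with GST-tagged yeast transcription factors at about 100-200 nM. Fluorescent anti-GST detected bound protein, and masliner normalised the scans.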
With GGGCGATA, the “PBM E-score” value was -0.0958.

In the case of TCAGACAA, the “PBM E-score” value was 0.161. Take AAACCCGG: the “PBM E-score” value was found to be 0.188. As to GTGCCCCA, the “PBM E-score” value amounted to 0.0341.

Turning to AATTTCTA, the “PBM E-score” value came to 0.122.

In the case of GACCACCA, the “PBM E-score” value was -0.0598.

As for ATTGGATG, the “PBM E-score” value was determined as 0.0752. To AGGTCTTC belongs -0.246; to GATCTTTA, 0.0393. On to AATGGAGT, for which the “PBM E-score” value was -0.144. As to ACCTAGCT, the “PBM E-score” value is -0.206. For the sequence ATGTCCTG, the “PBM E-score” value was -0.00071. To AAAATCAT belongs 0.16; to CGTGTACC, -0.213. In the case of CACATACG, the “PBM E-score” value is -0.261. As to CAGTTGGC, the “PBM E-score” value was -0.156. On to ACGCGATA, for which the “PBM E-score” value worked out at 0.00646. As to GGCCATTA, the “PBM E-score” value was -0.00171. Regarding AAGCAGCA, the “PBM E-score” value was -0.28. As for ATTAGTCA, the “PBM E-score” value stood at 0.18.

As to ATTCTGGA, the “PBM E-score” value is 0.00961. Under CGAGGAAC stands 0.0217. Under AGAAATGC stands 0.231; under ACTATTAA, 0.116. As to AATCGCAG, the “PBM E-score” value is -0.0896. AATATCGG: the “PBM E-score” value stood at 0.101. To GTTGCCAA belongs -0.0555. To CGGTCTGA belongs 0.0651; to AGGCGCTA, -0.0601; to CCGCCCAC, 0.121. As for CACTCATG, the “PBM E-score” value is 0.0761.

On to CTTGCACC, for which the “PBM E-score” value is -0.0697. For ACGCACAG, the “PBM E-score” value was -0.0708. With GACATTCC, the “PBM E-score” value was -0.0914. In the case of CAAAACAA, the “PBM E-score” value is 0.0913.

With AAGGATGT, the “PBM E-score” value is -0.0418. As to GGCGGGTA, the “PBM E-score” value was -0.0476. To AGTTCATC belongs -0.127; to GTCTATGA, -0.00462. Turning to CCGGCAAG, the “PBM E-score” value was -0.0708. As to AAATATTG, the “PBM E-score” value was 0.243. For AATGATTA, the “PBM E-score” value is 0.19.

As for AAGGATCC, the “PBM E-score” value is -0.266. As for GGCGACAC, the “PBM E-score” value is -0.077. As to CGTCTCGA, the “PBM E-score” value was determined as 0.0467. Under CACCGTTA stands -0.0893; under AGGCTAAA, 0.133; under TATCCGAA, 0.161. On to CCGGGTTC, for which the “PBM E-score” value is -0.00368. As to GAGAGCCA, the “PBM E-score” value was -0.186. Take GCCAGGTA: the “PBM E-score” value is -0.127. As for CCAGGCTC, the “PBM E-score” value is -0.124. For the sequence AAGATCAC, the “PBM E-score” value is -0.0426. As to CGAACAGA, the “PBM E-score” value turned out to be 0.214. ACCGACAT: the “PBM E-score” value came to 0.0129.

For the sequence GTCGCGAA, the “PBM E-score” value is -0.0274.

Consider ACCAAACC, for which the “PBM E-score” value amounted to 0.203. Under GCGATGCA stands -0.234. Regarding GAAGATCA, the “PBM E-score” value is -0.044. As to AACGTTAC, the “PBM E-score” value was 0.0846. Regarding AACTATAC, the “PBM E-score” value came out at 0.111. With GGGTGACC, the “PBM E-score” value is -0.132.

On to CCTGGGAG, for which the “PBM E-score” value was -0.0726. For AAGGGCTA, the “PBM E-score” value is -0.165. CGAGGATC: the “PBM E-score” value is -0.0171. For the sequence CCTACTCG, the “PBM E-score” value was -0.0396. As to CATAAACC, the “PBM E-score” value was 0.0477. As for AGGTATGG, the “PBM E-score” value stood at 0.0387. Consider AAGATGCC, for which the “PBM E-score” value was 0.049. As for CTCCAAAG, the “PBM E-score” value was -0.0333. Take AGGGGAAC: the “PBM E-score” value was -0.118.

In the case of ACTTTAGC, the “PBM E-score” value is -0.139. As for GCTTTCCA, the “PBM E-score” value is -0.0781. With GGTTTTCA, the “PBM E-score” value was 0.311. Under ATGTCTAC stands -0.183. With AAAAAACT, the “PBM E-score” value came out at 0.0774. Under GATACATC stands 0.0608. On to ATGTTGGA, for which the “PBM E-score” value was found to be 0.152.

For the sequence GCGTGCAC, the “PBM E-score” value is -0.0491. As to ATAATGCC, the “PBM E-score” value is 0.0176.

Turning to TACTCTGA, the “PBM E-score” value was 0.12. As for CATTTCCC, the “PBM E-score” value worked out at 0.295. As to CGTCCTAA, the “PBM E-score” value was -0.124. On to CGCGTTAC, for which the “PBM E-score” value was 0.104. To GACCTAGA belongs -0.118; to CATAACGG, -0.108; to GTTAAAAC, 0.174. As for TTCTAAAA, the “PBM E-score” value is 0.292. Under GGAATCAC stands -0.0728; under CCATCTAA, -0.0751; under AGAGCACG, -0.0578. Take GCACGAAC: the “PBM E-score” value amounted to 0.0154. Turning to AATCACGT, the “PBM E-score” value was -0.0974. In the case of CGCTAGCA, the “PBM E-score” value was -0.134.
